Test results as given in PMC4336329 (PLoS ONE, 2015).
The campaign covered roughly 310,000 compounds. About 2,200 (0.71%) showed an effect of 50% or more. Effects have a minus sign here. Some of the results follow.

Each compound was assayed against human ether-à-go-go-related gene (hERG) potassium channel (human, UniProt Q12809) (assay: primary screen, population patch clamp on CHO cells stably expressing hERG).
Sequence of human ether-à-go-go-related gene (hERG) potassium channel (Q12809 whole entry, looked up): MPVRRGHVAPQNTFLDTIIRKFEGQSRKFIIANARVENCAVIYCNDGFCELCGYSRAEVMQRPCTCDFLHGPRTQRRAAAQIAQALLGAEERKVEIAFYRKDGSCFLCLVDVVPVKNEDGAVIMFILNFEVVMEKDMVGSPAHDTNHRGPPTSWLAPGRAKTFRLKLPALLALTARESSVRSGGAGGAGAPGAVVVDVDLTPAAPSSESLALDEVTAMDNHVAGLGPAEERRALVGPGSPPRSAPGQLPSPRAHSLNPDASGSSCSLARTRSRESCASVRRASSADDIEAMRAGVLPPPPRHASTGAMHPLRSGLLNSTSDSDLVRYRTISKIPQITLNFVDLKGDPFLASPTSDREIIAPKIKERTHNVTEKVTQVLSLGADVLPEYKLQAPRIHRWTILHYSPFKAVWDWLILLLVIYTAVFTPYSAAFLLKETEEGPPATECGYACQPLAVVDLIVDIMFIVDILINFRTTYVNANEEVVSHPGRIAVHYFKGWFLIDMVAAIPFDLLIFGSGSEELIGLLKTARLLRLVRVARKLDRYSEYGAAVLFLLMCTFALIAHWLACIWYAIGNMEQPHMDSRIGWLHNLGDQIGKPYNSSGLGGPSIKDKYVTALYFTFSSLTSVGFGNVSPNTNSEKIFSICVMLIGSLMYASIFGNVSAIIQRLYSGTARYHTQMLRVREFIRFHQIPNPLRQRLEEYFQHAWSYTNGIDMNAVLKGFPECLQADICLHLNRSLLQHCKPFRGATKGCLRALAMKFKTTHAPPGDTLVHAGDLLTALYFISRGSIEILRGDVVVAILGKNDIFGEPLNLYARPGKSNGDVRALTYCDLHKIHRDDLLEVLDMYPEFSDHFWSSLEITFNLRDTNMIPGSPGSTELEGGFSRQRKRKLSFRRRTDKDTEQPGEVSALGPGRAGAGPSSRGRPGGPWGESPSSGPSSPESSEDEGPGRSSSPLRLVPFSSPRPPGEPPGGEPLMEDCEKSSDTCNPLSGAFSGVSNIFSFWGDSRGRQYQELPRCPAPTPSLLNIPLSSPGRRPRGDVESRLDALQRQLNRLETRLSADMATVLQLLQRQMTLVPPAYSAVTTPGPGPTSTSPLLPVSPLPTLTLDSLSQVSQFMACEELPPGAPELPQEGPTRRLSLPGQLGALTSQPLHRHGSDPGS

**Q.** With `Cc1ccc(C)c(S(=O)(=O)N2CCC3(CC2)OCCO3)c1` as the compound, how does the “hERG current change (%, negative = inhibition) at 1uM” value read?
**A.** 10.5%

**Q.** How did the “hERG current change (%, negative = inhibition) at 1uM” value turn out when `O=C(CO/N=C/c1ccc(OC(F)F)cc1)NCc1ccc(F)cc1` was run?
**A.** -52%

**Q.** How did the “hERG current change (%, negative = inhibition) at 1uM” value turn out when `COc1ccc(CCNC(=O)CS(=O)(=O)c2cn(CC(=O)N3CCCC3)c3ccccc23)cc1OC` was run?
**A.** 12.8%

**Q.** For `CCOC(=O)N1CCN(C(=O)CSCC(=O)N=c2sc3ccccc3n2C)CC1`, which “hERG current change (%, negative = inhibition) at 1uM” value is on record?
**A.** -3.08%

**Q.** With `Cl.N=c1c2c(n(Cc3cccc(Cl)c3)c3c1CCC3)CCCC2` as the compound, how does the “hERG current change (%, negative = inhibition) at 1uM” value read?
**A.** 10.2%

**Q.** With `CC1CN(CC(=O)Nc2ccc(S(N)(=O)=O)cc2)CC(C)O1` (stereo not shown) as the compound, how does the “hERG current change (%, negative = inhibition) at 1uM” value read?
**A.** -13.5%

**Q.** How did the “hERG current change (%, negative = inhibition) at 1uM” value turn out when `CCCCOc1ccc(/C=N/NC(=O)c2csc(C)c2C)cc1` was run?
**A.** 14.7%

**Q.** `CCCNc1nc(=S)n(-c2ccccc2)c(C)c1C(C)=O` was tested. Which “hERG current change (%, negative = inhibition) at 1uM” value did it give?
**A.** -2.97%

**Q.** For `CC(C)CCNC(=O)NC(=O)COc1c(F)c(F)cc(F)c1F`, which “hERG current change (%, negative = inhibition) at 1uM” value is on record?
**A.** -7.44%

**Q.** How did the “hERG current change (%, negative = inhibition) at 1uM” value turn out when `COCCNC(=S)N(CCc1c(C)[nH]c2ccc(Cl)cc12)Cc1cccs1` was run?
**A.** 23.7%

**Q.** With `CCc1cc(=O)oc2cc(OCC(=O)N3C[C@H]4C[C@@H](C3)c3cccc(=O)n3C4)c(Cl)cc12` as the compound, how does the “hERG current change (%, negative = inhibition) at 1uM” value read?
**A.** 13%

**Q.** Which “hERG current change (%, negative = inhibition) at 1uM” value does the source give for `CC(=O)c1ccccc1NC(=O)COC(=O)Cc1cccc(C(F)(F)F)c1` here?
**A.** -22.6%

**Q.** `Cc1cc(C)c(Cn2ncn(-c3ccc(Br)cc3)c2=O)c(C)c1` was tested. Which “hERG current change (%, negative = inhibition) at 1uM” value did it give?
**A.** 11.8%

**Q.** Which “hERG current change (%, negative = inhibition) at 1uM” value does the source give for `O=C(CCn1nc(-c2ccc(Cl)cc2)ccc1=O)N1CCN(c2ccccc2)CC1` here?
**A.** 1.15%

**Q.** How did the “hERG current change (%, negative = inhibition) at 1uM” value turn out when `O=C(O)CC(c1ccc(OC2CCCC2)cc1)N1C(=O)c2ccccc2C1=O` (stereo not shown) was run?
**A.** 12.5%

**Q.** With `COc1ccc(NS(=O)(=O)c2cn(C)cn2)cc1OC` as the compound, how does the “hERG current change (%, negative = inhibition) at 1uM” value read?
**A.** 16.4%

**Q.** `CC(=O)c1cc(NC(=O)c2ccc(C)cc2)c(=O)oc1C` was tested. Which “hERG current change (%, negative = inhibition) at 1uM” value did it give?
**A.** 12.5%

**Q.** `N#CC[C@H](Cc1ccccc1)N1CCN(Cc2ccccc2)CCC1=O` was tested. Which “hERG current change (%, negative = inhibition) at 1uM” value did it give?
**A.** 6.36%

**Q.** How did the “hERG current change (%, negative = inhibition) at 1uM” value turn out when `COC(=O)c1cc2sc(Cl)cc2n1Cc1nc(-c2ccccc2)oc1C` was run?
**A.** 6.98%

**Q.** `COc1ccc2c(CC(=O)Nc3ccccc3OC)coc2c1` was tested. Which “hERG current change (%, negative = inhibition) at 1uM” value did it give?
**A.** 5.01%

**Q.** `CN(Cc1nc2ccccc2c(=O)[nH]1)C(=O)c1ccc(S(=O)(=O)N2CCCC2)cc1` was tested. Which “hERG current change (%, negative = inhibition) at 1uM” value did it give?
**A.** -10.9%

**Q.** Which “hERG current change (%, negative = inhibition) at 1uM” value does the source give for `Cc1c(NC(=O)C2CCCN2S(=O)(=O)c2ccc(Cl)cc2)c(=O)n(-c2ccccc2)n1C` (stereo not shown) here?
**A.** 0.321%

**Q.** `CCc1ccc(/C=C(/C#N)C(N)=S)s1` was tested. Which “hERG current change (%, negative = inhibition) at 1uM” value did it give?
**A.** 15%

**Q.** With `Cc1nc(C)c(C(=O)C2=C(O)C(=O)N(CCN3CCOCC3)C2c2cccs2)s1` (stereo not shown) as the compound, how does the “hERG current change (%, negative = inhibition) at 1uM” value read?
**A.** 15%

**Q.** Which “hERG current change (%, negative = inhibition) at 1uM” value does the source give for `COc1ccc(NC(=O)c2cccc(Cn3cc(Br)c([N+](=O)[O-])n3)c2)c(C)c1` here?
**A.** -18.1%

**Q.** With `O=C(COC(=O)CNS(=O)(=O)c1cccc(Br)c1)Nc1ccccc1Sc1ccccc1` as the compound, how does the “hERG current change (%, negative = inhibition) at 1uM” value read?
**A.** 12.1%

**Q.** How did the “hERG current change (%, negative = inhibition) at 1uM” value turn out when `O=C(Nc1cnn(C23CC4CC(CC(C4)C2)C3)c1)c1cnn2c(C(F)(F)F)cc(-c3ccco3)nc12` was run?
**A.** 3.92%

**Q.** How did the “hERG current change (%, negative = inhibition) at 1uM” value turn out when `COCCn1nnnc1C(c1ccccc1OC)N1CCN(c2ccccc2)CC1.Cl` (stereo not shown) was run?
**A.** 6.17%

**Q.** For `CC(C)(C)c1ccccc1NC(=O)CN1C(=O)NC2(CCCC2)C1=O`, which “hERG current change (%, negative = inhibition) at 1uM” value is on record?
**A.** 9.44%

**Q.** For `O=C(CSc1ncnc2nc[nH]c12)N1CCN(c2ccccc2)CC1`, which “hERG current change (%, negative = inhibition) at 1uM” value is on record?
**A.** 1.06%

**Q.** For `Cc1ccc(C)c(NC(=S)N(C2CCCCC2)C(C)c2cccnc2)c1` (stereo not shown), which “hERG current change (%, negative = inhibition) at 1uM” value is on record?
**A.** -8.08%

**Q.** Which “hERG current change (%, negative = inhibition) at 1uM” value does the source give for `Cc1cc(S(=O)(=O)NC2CCCCC2)ccc1OCC(=O)NCc1ccccn1` here?
**A.** 5.58%

**Q.** For `O=C1c2cccc(O)c2C(=O)c2c(O)cc(CO)cc21`, which “hERG current change (%, negative = inhibition) at 1uM” value is on record?
**A.** 10.1%

**Q.** `CC1=CCC2COC(c3ccc[n+](Cc4ccccc4)c3)C1C2.[Cl-]` (stereo not shown) was tested. Which “hERG current change (%, negative = inhibition) at 1uM” value did it give?
**A.** 3.07%

**Q.** With `COC(=O)c1ccc(C(=O)OC)c(NC(=S)N2CC(C)CC(C)C2)c1` (stereo not shown) as the compound, how does the “hERG current change (%, negative = inhibition) at 1uM” value read?
**A.** 10.6%

**Q.** Which “hERG current change (%, negative = inhibition) at 1uM” value does the source give for `Cc1ccc(S(=O)(=O)N(Cc2ccccc2)C(C)C)cc1` here?
**A.** -1.02%

**Q.** With `COc1ccc(C2CC(c3cccs3)=NN2C(=O)CSc2nncs2)cc1OC` (stereo not shown) as the compound, how does the “hERG current change (%, negative = inhibition) at 1uM” value read?
**A.** -0.541%

**Q.** Which “hERG current change (%, negative = inhibition) at 1uM” value does the source give for `O=C(OCC(=O)c1c[nH]c2ccccc12)c1cc(S(=O)(=O)N2CCOCC2)ccc1F` here?
**A.** 2.38%

**Q.** `CC(CC(=O)N1CCN(c2ccccc2F)CC1)c1ccccc1` (stereo not shown) was tested. Which “hERG current change (%, negative = inhibition) at 1uM” value did it give?
**A.** 14.6%

**Q.** `Cc1cc(C)c2c(CN3CCN(Cc4ccccc4)CC3)cc(=O)oc2c1.Cl` was tested. Which “hERG current change (%, negative = inhibition) at 1uM” value did it give?
**A.** -22.2%

**Q.** `Cn1ccnc1SCCNC(=O)C1CCC(=O)N(Cc2ccc(Cl)cc2)C1` (stereo not shown) was tested. Which “hERG current change (%, negative = inhibition) at 1uM” value did it give?
**A.** 0.779%

**Q.** How did the “hERG current change (%, negative = inhibition) at 1uM” value turn out when `CC1CN(Cc2cc(=O)[nH]c(C3CC3)n2)CC(C)O1` (stereo not shown) was run?
**A.** 11.2%

**Q.** Which “hERG current change (%, negative = inhibition) at 1uM” value does the source give for `O=C(COc1ccc([N+](=O)[O-])cc1)Nc1ccc(CN2CCOCC2)cc1` here?
**A.** -32.9%
